Measured values taken from PubChem BioAssay AID588342 (National Center for Advancing Translational Sciences (NCATS), 2011).
Among all 360,000 compounds or so, about 25,000 (6.9%) were called active. Inconclusive means that the source gave no clear call. Such entries were picked first, then a sample of the others. The call rests on the fitted dose curve; in most records, active means well fitted inhibition curve with a large enough effect; inconclusive means small, poorly fitted or top-dose-only effect; inactive means flat fitted curve, though single readings scatter. Where the call is inconclusive, the potency comes from a doubtful curve fit.

Molecular target: Luciferin 4-monooxygenase (Photinus pyralis) (UniProt P08659)
Assay: qHTS profiling assay for firefly luciferase inhibitor/activator using purifed enzyme and Km concentrations of substrates (counterscreen for miR-21 project); further: nearly all actives have a fitted effect of over 55% in size;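 on activity change, negative = inhibition: plate controls were vehicle for no effect and reference inhibitor for full effect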
Conditions: purified FLuc, luminescence inhibition; activity change, negative = inhibition: at 57.5 µM (top of the series)
How it was run: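 Biochemical qHTS of compounds, final roughly 60 µM downward over six points, against 10 nM purified firefly luciferase using Km concentrations of substrates (10 uM D-luciferin, 10 uM ATP) in Tris acetate pH 7.5 buffer; luminescence output.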
Potency means the concentration at half of the fitted maximal effect; tags describe the fitted curve by direction and shape.

Chain of UniProt P08659 (P08659 whole entry, looked up): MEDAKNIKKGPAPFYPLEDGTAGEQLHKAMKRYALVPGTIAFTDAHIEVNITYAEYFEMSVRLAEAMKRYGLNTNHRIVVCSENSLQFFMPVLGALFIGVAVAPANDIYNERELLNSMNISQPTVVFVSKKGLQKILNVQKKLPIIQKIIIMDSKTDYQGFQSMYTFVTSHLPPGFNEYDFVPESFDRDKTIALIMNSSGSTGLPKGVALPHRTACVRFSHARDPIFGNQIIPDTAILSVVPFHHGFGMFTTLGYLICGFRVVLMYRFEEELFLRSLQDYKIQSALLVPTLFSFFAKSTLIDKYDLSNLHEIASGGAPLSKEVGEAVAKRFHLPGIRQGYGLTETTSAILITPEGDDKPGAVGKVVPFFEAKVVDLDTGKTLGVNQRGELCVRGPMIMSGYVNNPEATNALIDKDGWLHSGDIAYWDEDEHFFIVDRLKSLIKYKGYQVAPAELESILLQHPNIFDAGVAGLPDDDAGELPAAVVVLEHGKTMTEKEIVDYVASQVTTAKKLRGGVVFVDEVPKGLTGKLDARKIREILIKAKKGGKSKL

Row | Structure (SMILES) | activity change, negative = inhibition | Potency
1 | O=C(NC1CCCC1)C(NS(=O)(=O)c1ccc(Br)s1)c1ccccc1 (stereo unspecified) | inactive: -0.902% | –
2 | CCCS(=O)(=O)Nc1cccc(-c2cn3ccsc3n2)c1 | – | inconclusive: 33.8 µM [inhibitor, partial curve, poor fit]
3 | Cc1ccc(-c2noc(CC(c3ccccc3)c3ccccc3)n2)cc1 | inactive: 10.8% | –
4 | O=C(COc1ccccc1)Nc1nc(-c2cccs2)cs1 | – | inconclusive: 21.3 µM [inhibitor, single point]
5 | CN(C)S(=O)(=O)c1ccc(NC(=O)c2ccc3ncsc3c2)cc1 | – | inconclusive: 23.9 µM [inhibitor, single point]
6 | O=C(/C=C/c1ccncc1)c1ccc(NC(=O)c2ccccc2F)cc1 | – | inconclusive: 10.7 µM [inhibitor, partial curve, poor fit]
7 | Fc1cccc(NCCc2c[nH]c3ccccc23)n1 | – | inconclusive: 26.9 µM [inhibitor, single point]
8 | CN(Cc1ccccc1)C(=O)c1ccc(CSc2nc3cccnc3n2Cc2ccccc2)cc1 | – | inconclusive: 37.9 µM [inhibitor, partial curve, poor fit]
9 | Cc1cc(NC(=O)c2cccc(COc3ccc(Br)cc3)c2)no1 | – | active: 9.53 µM
10 | CCCCn1c(N)c(N(CCOC)C(=O)COC(=O)CCOc2ccccc2C)c(=O)[nH]c1=O | inactive: 6.01% | –
11 | Cc1ccc(SCc2nnc(N)s2)cc1 | – | inconclusive: 6.01 µM [inhibitor, partial curve, poor fit]
12 | C/C(=N/Nc1nc(-c2ccccc2)c(CC(=O)O)s1)c1ccccc1 | – | active: 5.36 µM
13 | Cc1ccc(C)c(Cn2nnc(C(=O)Nc3ccc4c(c3)OCCO4)c2N)c1 | – | inconclusive: 2.39 µM [inhibitor, partial curve]
14 | COc1ccc(Cl)cc1NC(=O)CN(C)C(=O)CSc1ccc2c(c1)OCCO2 | – | inconclusive: 33.8 µM [inhibitor, partial curve, poor fit]
15 | Cc1ccc(C)c(Cn2c(SCC(=O)NCc3ccccc3)nc3ccccc32)c1 | inactive: -0.124% | –
16 | CC(C)OC(=O)c1cc2ccccc2[nH]1 | – | inconclusive: 21.3 µM [inhibitor, partial curve]
17 | O=C1/C(=C\c2ccc(O)c(O)c2)SC(=S)N1Cc1ccccc1 | – | inconclusive: 21.3 µM [inhibitor, partial curve, poor fit]
18 | Cc1cccc(C(=O)Oc2csc(=S)n2C(=O)c2cccc(C)c2)c1 | – | inconclusive: 26.9 µM [inhibitor, single point]
19 | Cc1nc2cc(N=NC3=C(O)CCCC3=O)ccc2s1 | – | active: 13.5 µM
20 | O=C(N/N=C/c1cccc(Oc2ccccc2)c1)c1ccccc1F | – | active: 16.9 µM
21 | CC(C)N(CCO)Cc1nc(C(c2ccccc2)c2ccccc2)no1 | inactive: -1.11% | –
22 | Cc1ccccc1NC(=O)CSc1ccc(-c2ccc(-n3cccn3)cc2)nn1 | – | inconclusive: 0.301 µM [inhibitor, full curve]
23 | Cc1nnc(NC(=O)c2sc3nc(-c4cccs4)cc(C(F)(F)F)c3c2N)s1 | – | inconclusive: 21.3 µM [inhibitor, partial curve, poor fit]

Row | Structure (SMILES) | activity change, negative = inhibition | Potency
24 | Cc1[nH]n(-c2ccccc2)c(=O)c1C(=O)c1cccc(F)c1 | – | inconclusive: 15.1 µM [inhibitor, partial curve]
25 | CCOC(=O)c1cnn(-c2ccccc2)c1N | – | inconclusive: 30.1 µM [inhibitor, partial curve, poor fit]
26 | O=C(NCc1ccco1)c1ccc2nc3sc4c(c3c(=O)n2c1)CCCC4 | – | inconclusive: 9.53 µM [inhibitor, partial curve]
27 | C/C(=N\NC(=O)c1ccc(N/N=C(\C)c2ccc(O)cc2)cc1)c1ccc(O)cc1 | – | active: 4.78 µM
28 | NC(=O)c1nsc(C(=O)N(Cc2ccc(F)cc2)C(C(=O)NCC2CCCO2)c2ccc(O)cc2)c1N (stereo unspecified) | inactive: 0.655% | –
29 | Cc1ccc(Nc2ncnc(N)n2)cc1 | – | inconclusive: 37.9 µM [inhibitor, single point]
30 | COc1ccc(OC)c(-n2c(-c3cc(-c4ccccc4)n[nH]3)n[nH]c2=S)c1 | – | inconclusive: 15.1 µM [inhibitor, partial curve, poor fit]
31 | Clc1ccc(Cc2nc(-c3ccncc3)no2)cc1 | inactive: -13.1% | –
32 | O=C(NCCc1ccc(Cl)cc1)c1cccs1 | – | inconclusive: 37.9 µM [inhibitor, single point]
33 | Cc1ccc(N2CC(=O)Nc3c(sc4nc(C)cc(C)c34)C2=O)cc1 | inactive: -9.18% | –
34 | O=C(NCCO)c1ccc(-c2nnc(Nc3ccc(OC(F)(F)Cl)cc3)c3ccccc23)cc1 | inactive: 1.44% | –
35 | Cc1ccc(C(=O)NCCn2cc(SCC(=O)Nc3cc(C)on3)c3ccccc32)cc1 | – | active: 5.36 µM
36 | CC(=O)Oc1ccccc1/C=C/c1ccc2ccccc2[n+]1C | – | inconclusive: 16.9 µM [inhibitor, single point]
37 | Cc1ccc(NC(=S)NC(CO)C(O)c2ccc([N+](=O)[O-])cc2)cc1 (stereo unspecified) | inactive: 2.05% | –
38 | COc1ccc(CNc2ncnc3c2c(-c2ccccc2)cn3-c2ccc(C)c(Cl)c2)cc1 | inactive: -3.96% | –
39 | CCOc1ccc(NC(=O)CCNC(=O)c2ccco2)cc1 | inactive: -4.63% | –
40 | COc1ccc(C(=O)Nc2ccccc2C(=O)N/N=C/c2cccc3ccccc23)cc1 | – | active: 0.0849 µM
41 | Cc1cccc(C(=O)Nc2ccc3c(c2)C(=O)N(CC(C)C)C3=O)c1 | – | inconclusive: 3.01 µM [inhibitor, full curve]
42 | O=C1c2cccnc2C(Nc2ccc(F)c(Cl)c2)N1Cc1cccs1 (stereo unspecified) | – | inconclusive: 21.3 µM [inhibitor, partial curve, poor fit]
43 | COc1cccc(C(=O)Nc2nc(-c3nnn(-c4cccc(Cl)c4C)c3C)ns2)c1 | – | active: 12 µM
44 | COc1ccc(/C=C/c2nc(-c3ccccc3O)n(-c3ccccc3)n2)cc1 | – | inconclusive: 23.9 µM [inhibitor, partial curve]
45 | O=C(CN1CCCCC1)N=Nc1c(O)[nH]c2ccccc12 | – | inconclusive: 19 µM [inhibitor, partial curve]
46 | CCCCn1c(=O)c2oc3ccccc3c2n(Cc2ccc(C)cc2)c1=O | inactive: 3.25% | –
